Experimental data taken from the RNAGym collection of RNA variant scans (doi:10.1093/nar/gkz1192).
Read counts are not given, so values of variants with three or more changes are uncertain.

B1: CPEB3 Ribozyme (parent)
chain: UAACAGGGGGCCACAGCAGAAGCGUUCACGUCGCAGCCCCUGUCAGAUUCUGGUGAAUCUGCGAAUUCUGCUGUAUAUCUC

Variants of: B1
Assay: self-cleavage, relative activity (ratio to wild type); higher = more cleavage; in vitro, sequencing
Outline: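 Libraries of CPEB3 self-cleaving ribozyme mutants came from rounds of error-prone PCR and carried barcodes, which DNA sequencing matched to variants. In vitro transcription used T7 RNA polymerase at 37°C for 5 hours, with a further 15 min in DNase I before EDTA stopped the reaction; the ribozymes cleaved during both steps. The RNA was reverse transcribed with template switching and sequenced on Illumina. Relative activity is the cleaved/total read fraction of a variant divided by that of the unmutated ribozyme, averaged over three batches with at least 5 reads.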

Variant	self-cleavage
A18G A21G G55A U60A	0.07
C17G U26C A57G U67A A77G	0.07
A18G A21G U25C U67C	0.18
A18C G30A A47C A64G	0.13
G16C U58A C62A	0.13
C17U A35U U43A	0.56
A18G A21G U31A U41C A56U A57G	0.21
C17U A18U U51C U60A U66C	0.18
C17U A28G U76C U78C	0.51
C17A U41C C62U	0.13
C17A A47U U60A	0.11
C17A A21G U25C A28G	0.42
A18C U41C A57G	0.16
C17U A28G U54C U67C A75G	0.07
C17U A20U U31C A77G	0.36
A18C U31C U54C C59A U78G	0.02
C17A U31A A35G U43C U67C	0.06
C17U A35U G63U	0.42
C17U U48C U69G U80A	0.07
C17G A56U U80C	0.39
C17U A21U C50A A56G A64G	0.12
G16U C29U U48G U60C U80C	0.29
C17A A18U G36A U43C U60A	0.07
C17U A20C A21G A35G U43C A64U	0.04

Variant	self-cleavage
A18G A21G U43C U49A	0.06
A18G A21U G30A G73A	0.09
G16U U41A U49C A56U U80C	0.17
A18G A20U U41A A45U A75U U78A	0.05
A18G A21G A47G U74C	0.29
C17U A18U U51C U72C	0.11
C17A A21G U41C A57G A64G C71G G73A	0.02
G16U A21G C38A U41C A57G	0.05
C17U C29U A56G U66A	0.08
C17U C39A U41C U72C C81U	0.09
A18G A20G U69C	1.04
C17U G22C U31C C44U A45U	0.04
C17U U26C A35U U49C U58C	0.02
G16U A35G U49C U69A	0.18
C17G U66A U80A	0.08
C17U A47G G70C U78C	0.17
C17U U41C G42C	0.21
A18C U31A G52A	0.35
C17U U41A U43A U72A	0.07
A18G A20G U25C U26C U54A A64G	0.41
A18C U51A U60A G73A U80C	0.16
C17G A64G C71G G73A	0.13
G16U A56U U69G U72A U76C U80C	0.06
G16C U41A U67A	0.2

Variant	self-cleavage
A18C U31C G63U U67C U78A	0.05
C17U U48C G53A U54C	0.18
A18G A21G U26C U31A A64G	0.05
A18G A21G U41A A64G U72A	0.04
C17U A21G U49C A57G U72C	0.07
C17U U49C U67C U78C	0.08
A18C U72A U76C	0.36
C17U U51A A77U	0.7
C17U U31C A47G	0.45
C17U A21G U43C U74G U80C	0.41
C17U A20C A28G A47C U49C U51C U80C	0.04
A18G A20G U51A U54A U60A U67C	0.29
C17G A21G C29G U31C U69C	0.15
A18G A28G G30A G63C	0.21
A18G A20U U51C A56U U74A	0.09
C17U U25C A47G	0.35
C17A U43C U49C U54C A75C	0.11
C17U A35U A56G U58C	0.23
C17G U25G U26C A35G U67C	0.13
G16U C23A U26A A45C U72A U76C	0.11
G16U U58C U74A	0.31
G16C U25C A28U U66C C71G U72A U80A	0.06
C17G A20U A45G U60G C68G	0.05
C17A U67C U72G U80A	0.11

Variant	self-cleavage
C17U U25C C37U A57G U60C U80C	0.11
C17A U43C U49C U54C	0.15
C17G A21U U43A U78C	0.33
G16U A21G U41A G46U G70A U80A	0.07
C17G G30A C68U U69A U78C	0.04
C17U A28G C81G	0.5
C17U A20G U72C U80C	0.54
C17A U25G U26C C40A U48C A65G C81G	0.07
C17U A64G U72C	0.25
A18C A21G U58C	0.16
C17G U67C C81G	0.16
A18G A20G A28G	0.37
A18G A20U U25C U60C	0.14
C17U U26A G53A A65G	0.19
C17U U49C U54A	0.14
C17G C23A U26G	0.22
A18C G19U G33A A65U U78C	0.06
C17A U31C A35G U41C A64G U80A	0.15
C17U G33A U80A	0.17
A18C A20U A65G	0.28
C17U A45G U48C A64G	0.15
A18G A20U A45G U60A	0.16
C17A A20G U41C U51C U78C	0.07
C17G A18G A20G U31C U49A U54A U72G	0.05

Variant	self-cleavage
A18G A28G A45U C62U	0.18
A18C U31C U69C U80A	0.16
G16C U41C U43A G70C	0.04
G16U C34U U43C A56U U58C U67C	0.07
A18G A21G C27A U43A U69A	0.05
G16U U31C C38G	0.19
A18G A20G U26A U43C U49C A57G U74C	0.18
A18G A28G A45U U72C	0.16
A18G A20G A64U	0.35
G16U A20U A56U U60C A65U U69A U80A	0.02
A18C U26C U51C A56G U80C	0.11
C17U A20C A21G A65G	0.05
A18G A20U U41C	0.23
G16U U74A U80A	1.02
C17A U31C U58C	0.09
C17G A18G C23U U31A G73A	0.39
A18C C59U U80C	0.35
A18C G33U G46A U67C U80A	0.05
G16U U43C U58C U72C	0.14
A18G A20G G36U U43C U76C	0.21
C17U U41C A57G U69A U72C	0.18
C17U A35U A56U G73A	0.33
C17U G19U U60A	0.12
A18C U43C G52U U69C	0.14

Variant	self-cleavage
A18G A21U G63A	0.33
C17G A18U U72A	0.22
C17U U25C U26C U78C	0.27
C17A A18G U41G A47G	0.09
A18G A28G A56C A64G	0.24
A18C U25C A35G C62A U67C U72C U74A	0.09
C17A U26C U43C U67C	0.11
G16U A20U A28G U31C U72A U78C	0.05
C17G U31C G33U U60A U72C	0.16
A18C A20G U26A U43C	0.39
A18G A28G U41A A45G	0.29
A18G A20G U31C U41C U76C	0.02
G16U U26A A47G A64U U80C	0.29
A18G A20U A35G U54C U78C	0.36
A18C C32A G46A	0.16
G16U A64U U76A U80C	0.2
C17U A18U A20C A64G U69C U74C	0.16
G16U A18G C29A U48C G70C A75U	0.09
A18C U26G C39U A56G U60A	0.15
A18C U54C A57U	0.62
C17G U26C A57G U58C	0.25
A18C A45G A57C A77G	0.08
A18G A20G U67C	0.39
A18C A21U A45U U51A	0.05

Variant	self-cleavage
A18C A35G U67C U72C U74A	0.31
A18G A21G C44U A45G G52A	0.12
A18C A45C C62A A64G A75G	0.08
A18G A20C A45G A57G U74C	0.17
C17U A35U A45U	0.17
C17A C38A A57G A64G C71G G73A	0.04
A18C U41A A77G	0
A18G A28C U49C	0.14
C17G U31A U41C A45G C62A U69C A75G	0.09
A18G A20U A21G U51C U60C G73A	0.03
A18G A20U U72A U78C	0.14
C17G G30U A35G	0.2
C17U U25C U31A U41G A47G U54C	0.08
G16U A18U U31A U54A	0.11
A18G A20C U80A	0.02
C17U A56U U69A	0.14
C17U U60C U78C	0.15
A18G A20G U41C U58C A65U U72A	0.13
A18G A20G A21G U41A	0.26
A18C U25C A35G U48C U60C	0
C17G A28U U67C	0.16
C17U A18G U80C	0.45
C17U A28G A45G U69A	0.4
